Measurements reported in PubChem BioAssay (NCATS).
Several values for one entry are separate records, joined by “and”; a condition that tells them apart may be missing. Equal values may be shown once. The shares of active, inactive and inconclusive entries below differ from those in the screen. A potency beside an inconclusive call is a rough fit, not a confirmed value. A structure can be active in one record and inactive in another. Activity calls are given as the source filed them. The call rests on the fitted dose curve; in most records, active means well fitted curve in the direction sought with a large enough effect; inconclusive means small, poorly fitted or top-dose-only effect, or another doubt; inactive means no such curve, though single readings can be large; an effect the other way counts as inactive or inconclusive. Where a SMILES comes first, the peptide text is derived from it. [ ]: non-standard residue; d: D form. The star is where a group is joined. Nva = CCC[C@H](N)C(=O)O; Cbz = O=C(OCc1ccccc1)*

How the values were obtained:
[1] = tested on: KB-3-1; experiment: Cytotoxic Profiling of Annotated Libraries Using Quantitative High-Throughput Screening (AID 1296008); details: Five cell lines viability, CellTiter-Glo ATP luminescence, 48-72 h; max response: stronger effect = lower value; further: nearly all actives have a fitted effect of over 60% in size
How it was run: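 Cells exposed to compounds for 48 or 72 hr at 37 degrees Celsius. Viability read as ATP-coupled luminescence with CellTiter-Glo after 10 min at room temperature.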

[2] = tested on: MCC-13; experiment: qHTS assay to identify novel small-molecules to repurpose for Merkel cell carcinoma treatment (AID 1296009); details: MCC and control cell lines, CellTiter-Glo viability, 72 h; series mostly up to 46 µM; further: nearly all actives have a fitted effect of over 60% in size
How it was run: (§1)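 Dose-response viability screen; 72 hr exposure at 37 degree celsius; CellTiter-Glo added, 10 min room temperature, luminescence read; RLUs scaled between no-cell and DMSO wells.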

[3] = tested on: MCC-26; experiment: as above; details: MCC and control cell lines, CellTiter-Glo viability, 72 h; series mostly up to 46 µM
How it was run: as §1

[4] = tested on: UISO; experiment: as above; details: MCC and control cell lines, CellTiter-Glo viability, 72 h; series mostly up to 46 µM
How it was run: as §1

[5] = tested on: WaGa; experiment: as above; details: MCC and control cell lines, CellTiter-Glo viability, 72 h; series mostly up to 46 µM
How it was run: as §1

[6] = tested on: C33A; experiment: Primary qHTS to identify gynecologic anti-cancer compounds using libraries of approved drugs and bioactive compounds (AID 1345084); details: Gynecologic cancer cell panel viability, ATPlite luminescence, 48 h; series mostly up to 57.5 µM; further: nearly all actives have a fitted effect of over 55% in size
How it was run: (§2)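 Cell viability after 48 h drug treatment, ATPlite luminescence readout; five doses.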

[7] = tested on: CAOV3; experiment: as above; details: Gynecologic cancer cell panel viability, ATPlite luminescence, 48 h; series mostly up to 57.5 µM
How it was run: as §2

[8] = tested on: MKL-2; experiment: qHTS assay to identify novel small-molecules to repurpose for Merkel cell carcinoma treatment (AID 1296009); details: MCC and control cell lines, CellTiter-Glo viability, 72 h; activity change, negative = cytotoxicity: at 46 µM (top of the series); further: nearly all actives have a fitted effect of over 60% in size
How it was run: as §1

[9] = tested on: MKL-1; experiment: as above; details: MCC and control cell lines, CellTiter-Glo viability, 72 h; series mostly up to 46 µM
How it was run: as §1
On the % scale 0 is the no-effect control and ±100 the full control effect; potency means the concentration at half of the fitted maximal effect; tags describe the fitted curve by direction and shape.

**Q.** Which Potency [1] does the source give for `c1cncc(CN2CCC(n3ncc4c(N5CCOCC5)nc(-c5ccc6[nH]ccc6c5)nc43)CC2)c1` here?
**A.** inconclusive: 1.66 µM [inhibitor, full curve]

**Q.** What about the Potency [2] of the same compound?
**A.** inconclusive: 9.35 µM [inhibitor, single point]

**Q.** And the Potency [3]?
**A.** inconclusive: 9.35 µM [inhibitor, partial curve]

**Q.** What about the Potency [4] of the same compound?
**A.** inconclusive: 4.18 µM [inhibitor, partial curve]

**Q.** What about the Potency [5] of the same compound?
**A.** inconclusive: 10.5 µM [inhibitor, partial curve, poor fit]

**Q.** And the Potency [6]?
**A.** active: 31.6 µM

**Q.** And the Potency [7]?
**A.** active: 28.2 µM

**Q.** How did the Potency [1] turn out when `COc1c(C)c2c(c(O)c1CC=C(C)CCC(=O)OCCN1CCOCC1)C(=O)OC2` was run?
**A.** inconclusive: 10.5 µM [inhibitor, full curve]

**Q.** What about the Potency [2] of the same compound?
**A.** inconclusive: 5.26 µM [inhibitor, full curve]

**Q.** What about the Potency [3] of the same compound?
**A.** inconclusive: 7.43 µM [inhibitor, partial curve]

**Q.** What about the Potency [8] of the same compound?
**A.** active: 1.32 µM

**Q.** And the Potency [5]?
**A.** active: 2.64 µM

**Q.** With `O=C(O)c1ccc2c(c1)nc(Nc1cccc(Cl)c1)c1ccncc12` as the compound, how does the Potency [1] read?
**A.** active: 20.6 µM

**Q.** And the Potency [2]?
**A.** inconclusive: 7.43 µM [inhibitor, single point]

**Q.** And the Potency [8]?
**A.** active: 5.26 µM

**Q.** And the Potency [4]?
**A.** active: 4.18 µM

**Q.** What about the Potency [5] of the same compound?
**A.** inconclusive: 2.35 µM [inhibitor, full curve]

**Q.** And the Potency [6]?
**A.** inconclusive: 28.2 µM [cytotoxic, partial curve]

**Q.** And the Potency [7]?
**A.** inconclusive: 3.55 µM [cytotoxic, partial curve, poor fit]

**Q.** `CC1(C)CC(=O)c2c(C(F)(F)F)nn(-c3ccc(C(N)=O)c(NC4CCC(O)CC4)c3)c2C1` (centres undefined) was tested. Which Potency [1] did it give?
**A.** active: 105 nM and inconclusive: 73.1 nM [inhibitor, full curve]

**Q.** And the Potency [2]?
**A.** inconclusive: 0.418 µM [inhibitor, full curve]

**Q.** And the Potency [3]?
**A.** inconclusive: 0.418 µM [inhibitor, full curve]

**Q.** What about the Potency [9] of the same compound?
**A.** inconclusive: 0.332 µM [inhibitor, full curve]

**Q.** And the Potency [8]?
**A.** inconclusive: 4.18 µM [inhibitor, partial curve, poor fit]

**Q.** And the Potency [5]?
**A.** inconclusive: 0.209 µM [inhibitor, full curve]

**Q.** And the Potency [6]?
**A.** inconclusive: 0.355 µM [cytotoxic, full curve, poor fit]

**Q.** And the Potency [7]?
**A.** inconclusive: 0.316 µM [cytotoxic, full curve, poor fit]

**Q.** With `CC1(C)CC(=O)c2c(C(F)(F)F)nn(-c3ccc(C(N)=O)c(NC4CCC(OC(=O)CN)CC4)c3)c2C1` (centres undefined) as the compound, how does the Potency [1] read?
**A.** active: 105 nM and inconclusive: 146 nM [inhibitor, full curve]

**Q.** And the Potency [2]?
**A.** inconclusive: 0.743 µM [inhibitor, full curve]

**Q.** What about the Potency [3] of the same compound?
**A.** inconclusive: 0.372 µM [inhibitor, full curve]

**Q.** And the Potency [5]?
**A.** inconclusive: 0.332 µM [inhibitor, full curve]

**Q.** What about the Potency [6] of the same compound?
**A.** inconclusive: 0.708 µM [cytotoxic, full curve, poor fit]

**Q.** What about the Potency [7] of the same compound?
**A.** inconclusive: 0.316 µM [cytotoxic, full curve, poor fit]

**Q.** How did the Potency [1] turn out when `CN(C)CCc1c[nH]c2ccc(C[C@H]3COC(=O)N3)cc12` was run?
**A.** inconclusive: 26.4 µM [inhibitor, partial curve, poor fit]

**Q.** What about the Potency [3] of the same compound?
**A.** inactive

**Q.** `Nc1ncnc2c1c(-c1cccc(OCc3ccccc3)c1)cn2C1CC(CN2CCC2)C1` (centres undefined) was tested. Which Potency [1] did it give?
**A.** inconclusive: 37.2 µM [inhibitor, partial curve, poor fit]

**Q.** What about the Potency [3] of the same compound?
**A.** inactive

**Q.** And the Potency [4]?
**A.** inconclusive: 3.32 µM [inhibitor, full curve]

**Q.** And the Potency [6]?
**A.** inconclusive: 31.6 µM [cytotoxic, partial curve, poor fit]

**Q.** And the Potency [7]?
**A.** inconclusive: 31.6 µM [cytotoxic, partial curve, poor fit]

**Q.** How did the Potency [1] turn out when `C[C@@H]1CC(=O)NN=C1c1ccc(NN=C(C#N)C#N)cc1` was run?
**A.** inconclusive: 29.6 µM [inhibitor, single point]

**Q.** What about the Potency [2] of the same compound?
**A.** inconclusive: 23.7 µM [inhibitor, single point]

**Q.** What about the Potency [9] of the same compound?
**A.** inconclusive: 29.9 µM [inhibitor, single point]

**Q.** And the Potency [8]?
**A.** active: 8.41 µM and active: 7.5 µM

**Q.** And the Potency [4]?
**A.** active: 21.1 µM and inconclusive: 16.8 µM [inhibitor, partial curve] and inconclusive: 26.4 µM [inhibitor, single point]

**Q.** How did the Potency [1] turn out when `CC(C)c1noc(N2CCC(COc3ccc(-c4ccc(S(C)(=O)=O)cc4)nc3)CC2)n1` was run?
**A.** inconclusive: 29.6 µM [inhibitor, single point] and inconclusive: 16.4 µM [inhibitor, partial curve, poor fit]

**Q.** And the Potency [3]?
**A.** inactive

**Q.** And the Potency [4]?
**A.** inconclusive: 9.35 µM [inhibitor, partial curve]

**Q.** What about the Potency [5] of the same compound?
**A.** inconclusive: 14.8 µM [inhibitor, partial curve]

**Q.** For `CN(CC(=O)N(Cc1ccc(C2CCCCC2)cc1)c1ccc(C(=O)O)c(O)c1)S(=O)(=O)c1c(F)c(F)c(F)c(F)c1F`, which Potency [1] is on record?
**A.** inconclusive: 37.2 µM [inhibitor, single point]

**Q.** And the Potency [2]?
**A.** inconclusive: 29.6 µM [inhibitor, single point]

**Q.** And the Potency [8]?
**A.** inconclusive: 14.8 µM [inhibitor, partial curve, poor fit]

**Q.** Which results are given for `O=C1CCC(N2C(=O)c3ccccc3C2=O)C(=O)N1` (centres undefined)?
**A.** max response [1]: inactive: 0.83% and inactive: 2.13%; Potency [3]: inactive; Potency [4]: inactive

**Q.** Which results are given for `N#Cc1c(NC(=O)c2cccc3ccccc23)sc2c1CCCC2`?
**A.** Potency [1]: active: 0.469 µM; Potency [2]: inconclusive: 0.833 µM [inhibitor, full curve]; Potency [3]: inconclusive: 1.87 µM [inhibitor, full curve]; Potency [9]: inconclusive: 0.743 µM [inhibitor, full curve]; Potency [8]: inconclusive: 0.418 µM [inhibitor, full curve, poor fit]; Potency [5]: inconclusive: 0.662 µM [inhibitor, full curve]

**Q.** Which results are given for `CC1(COc2ccc3c(c2)ncn3-c2ccc3cccc(N4CCC(N)CC4)c3n2)COC1`?
**A.** Potency [1]: active: 5.9 µM and inconclusive: 20.6 µM [inhibitor, single point]; Potency [3]: inconclusive: 20.9 µM [inhibitor, partial curve]; Potency [9]: inconclusive: 0.0332 µM [inhibitor, full curve, poor fit]; Potency [4]: inconclusive: 0.0662 µM [inhibitor, full curve, poor fit]; Potency [5]: inconclusive: 0.0148 µM [inhibitor, full curve, poor fit]; Potency [6]: inconclusive: 25.1 µM [cytotoxic, single point]; Potency [7]: inconclusive: 35.5 µM [cytotoxic, partial curve, poor fit]

**Q.** What does the source list for `CCC[C@@H](C=O)NC(=O)[C@H](CC(C)C)NC(=O)[C@H](CC(C)C)NC(=O)OCc1ccccc1` (Cbz-Leu-Leu-[Nva]-aldehyde)?
**A.** Potency [1]: active: 2.96 µM; Potency [2]: active: 3.32 µM; Potency [3]: active: 3.32 µM; Potency [9]: active: 1.32 µM; Potency [5]: active: 0.833 µM

**Q.** For `COc1cc(Nc2ncc3c(n2)-c2ccc(Cl)cc2C(c2c(F)cccc2OC)=NC3)ccc1C(=O)O`, which Potency [1] is on record?
**A.** inconclusive: 29.1 µM [inhibitor, single point] and inconclusive: 8.2 µM [inhibitor, partial curve, poor fit]

**Q.** And the Potency [2]?
**A.** inconclusive: 0.166 µM [inhibitor, full curve]

**Q.** What about the Potency [9] of the same compound?
**A.** inconclusive: 0.469 µM [inhibitor, full curve]

**Q.** And the Potency [5]?
**A.** active: 0.148 µM

**Q.** What about the Potency [6] of the same compound?
**A.** active: 28.2 µM and inactive

**Q.** What about the Potency [7] of the same compound?
**A.** active: 31.6 µM and inconclusive: 631 nM [cytotoxic, full curve, poor fit]

**Q.** Which results are given for `O=c1[nH]nc(OCCCc2ccc(Cl)cc2)c(NCc2cccnc2)c1Br`?
**A.** Potency [1]: inconclusive: 8.2 µM [inhibitor, partial curve]; Potency [2]: inconclusive: 23.5 µM [inhibitor, single point]; Potency [3]: inactive; Potency [9]: active: 23.5 µM; Potency [4]: inconclusive: 29.6 µM [inhibitor, single point]; Potency [5]: inconclusive: 29.6 µM [inhibitor, single point]; Potency [6]: inconclusive: 28.2 µM [cytotoxic, single point]; Potency [7]: inconclusive: 39.8 µM [cytotoxic, single point]

**Q.** How did the Potency [1] turn out when `COc1c(C)cnc(Cn2cnc3c(Cl)nc(N)nc32)c1C` was run?
**A.** inconclusive: 0.0935 µM [inhibitor, full curve]

**Q.** What about the Potency [2] of the same compound?
**A.** inconclusive: 1.18 µM [inhibitor, full curve]

**Q.** What about the Potency [3] of the same compound?
**A.** inconclusive: 1.18 µM [inhibitor, full curve]

**Q.** What about the Potency [4] of the same compound?
**A.** active: 0.743 µM

**Q.** And the Potency [5]?
**A.** active: 0.209 µM

**Q.** How did the Potency [1] turn out when `COc1cc(Nc2c(C#N)cnc3cc(OCCCN4CCN(C)CC4)c(OC)cc23)c(Cl)cc1Cl` was run?
**A.** inconclusive: 25.9 µM [inhibitor, single point] and inconclusive: 26.4 µM [inhibitor, single point] and inconclusive: 29.1 µM [inhibitor, single point]

**Q.** And the Potency [2]?
**A.** inconclusive: 21.1 µM [inhibitor, single point] and inconclusive: 4.18 µM [inhibitor, full curve]

**Q.** And the Potency [3]?
**A.** inconclusive: 15 µM [inhibitor, partial curve, poor fit] and inconclusive: 1.66 µM [inhibitor, full curve]

**Q.** And the Potency [8]?
**A.** inconclusive: 16.8 µM [inhibitor, single point]

**Q.** And the Potency [4]?
**A.** inconclusive: 21.1 µM [inhibitor, partial curve] and inconclusive: 2.64 µM [inhibitor, full curve]

**Q.** What about the Potency [6] of the same compound?
**A.** active: 14.1 µM and inconclusive: 10 µM [cytotoxic, partial curve]

**Q.** What about the Potency [7] of the same compound?
**A.** inconclusive: 14.1 µM [cytotoxic, single point] and active: 6.31 µM
